Experimental findings from PubChem BioAssay AID488969 (Vanderbilt High Throughput Screening Facility, 2010) are described below.

Each structure is given as a SMILES string. Whole data set: some 110,000 compounds, median “z-score” near -0.1, cut for the highest 2% near 2. This is one part of the list. Calls of active or inactive are those of the source.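 Rule for the calls: active = z-score in the third read window above 3 or below -3; inactive = the rest.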

For this assay, the target named is Metabotropic glutamate receptor 8 (Rattus norvegicus) (UniProt P70579). Kind of assay: rat mGluR8 modulators via GIRK flux, primary screen, cell-based, thallium flux, HTS (AID 488969). To be noted: HEK293 rat mGluR8, GIRK (G protein-gated inwardly rectifying potassium channel) thallium flux, FluoZin2; at 10 µM; stronger effect = higher value; submaximal glutamate (EC20) added with thallium.
Sequence of UniProt P70579 (P70579 whole entry, looked up): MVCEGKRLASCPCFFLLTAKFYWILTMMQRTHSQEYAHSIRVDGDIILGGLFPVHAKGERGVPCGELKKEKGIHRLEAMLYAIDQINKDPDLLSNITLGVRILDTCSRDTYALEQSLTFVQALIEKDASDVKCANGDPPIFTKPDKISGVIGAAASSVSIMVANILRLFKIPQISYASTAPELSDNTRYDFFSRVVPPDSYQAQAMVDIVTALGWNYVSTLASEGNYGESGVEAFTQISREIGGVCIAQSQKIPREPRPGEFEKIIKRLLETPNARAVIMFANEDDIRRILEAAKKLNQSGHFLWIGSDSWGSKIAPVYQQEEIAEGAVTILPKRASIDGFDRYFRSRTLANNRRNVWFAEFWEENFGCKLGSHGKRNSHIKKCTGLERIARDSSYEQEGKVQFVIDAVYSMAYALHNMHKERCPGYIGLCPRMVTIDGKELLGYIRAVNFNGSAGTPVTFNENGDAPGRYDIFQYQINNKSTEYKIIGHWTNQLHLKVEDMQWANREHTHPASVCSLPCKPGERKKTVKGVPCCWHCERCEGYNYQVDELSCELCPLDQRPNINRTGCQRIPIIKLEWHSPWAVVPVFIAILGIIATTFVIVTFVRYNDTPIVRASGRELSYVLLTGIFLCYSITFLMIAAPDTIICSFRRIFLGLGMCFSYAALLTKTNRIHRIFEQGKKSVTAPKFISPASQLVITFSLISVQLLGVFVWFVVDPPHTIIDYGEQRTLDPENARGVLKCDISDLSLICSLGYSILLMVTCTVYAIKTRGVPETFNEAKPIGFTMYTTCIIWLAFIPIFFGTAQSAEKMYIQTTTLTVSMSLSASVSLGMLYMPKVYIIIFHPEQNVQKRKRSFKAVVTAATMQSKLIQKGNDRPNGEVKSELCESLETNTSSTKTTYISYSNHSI
`CC(C)Oc1ccc(C(=O)CCN2CCCCC2)cc1` registered a z-score of 1.59.
Turning to `Cc1nn(Cc2ccc(Cl)cc2Cl)c(C)c1NC(=O)Cn1nc([N+](=O)[O-])c(Cl)c1C`, the z-score was -0.175.
Consider `O=C(Cc1ccccc1)NC(=S)Nc1cccc(C(F)(F)F)c1`, for which the z-score was active: 4.01.
`Cn1nc(C(=O)Nc2sccc2C(N)=O)ccc1=O` showed a z-score of 0.165.
As to `O=C(NCc1ccccc1)c1cccnc1N1CCOCC1`, the z-score is -0.469.
The result for `Nc1ccc(C(=O)c2ccccc2C(=O)O)cc1Cl` reads 0.363.
As to `O=C(OCC(=O)N1CCN(C(=O)c2ccco2)CC1)c1ccccc1C(=O)c1ccc(Cl)cc1`, the z-score was found to be 0.0675.
Under `O=C(CSc1nnnn1-c1cccc(F)c1)Nc1nc2ccccc2s1` stands -0.0501; under `CCCOC1CCCN(C(=O)c2cc(Cl)c(Cl)cc2C(=O)O)C1` (stereo not drawn), -1.42.
For the compound `CCCCc1c(O)nc2ccccn2c1=O`, the z-score was determined as 0.0654.
Under `COc1cccc2sc(N(CCCN(C)C)C(=O)c3sc4ccccc4c3Cl)nc12` stands -0.927; under `O=C(Nc1ccc(F)cc1)c1ccccc1`, -0.000317.
In turn, `Cc1ccc(C(C[N+](=O)[O-])c2c(C)cc3ccccn23)cc1` (stereo not drawn) had a z-score of 0.00538.
Under `N#Cc1cc2cc3c(cc2nc1N1CCCCC1)OCCO3` stands 0.0458; under `COC(=O)c1cc(OC)c(OC)cc1NC(=O)c1ccc(Br)o1`, -0.712; under `Cc1nc(C)c(CCNC(=O)c2ccccc2Br)s1`, 0.772.
Consider `CN1CCN(C(=O)c2c(O)c3cccc4c3n(c2=O)CCC4)CC1`, for which the z-score was found to be 0.413.
Under `Cc1ccc(NC(=O)NCc2ccc3c(c2)OCO3)cc1` stands -0.338; under `O=C(CSC1CC(=O)N(CCc2ccccc2)C1=O)Nc1ccc(Br)cc1` (stereo not drawn), -0.313.
Under `COCCNC(=O)CCCCCN1C(=O)CCC1=O` stands 0.449; under `O=C(NC1CC2CCCC(C1)N2S(=O)(=O)c1ccccc1)c1ccco1` (stereo not drawn), -0.229; under `COc1ccc(CC(=O)N2CCOCC2)cc1OC`, -0.138.
Consider `Cc1ccc(C(CC(N)=O)c2ccco2)cc1` (stereo not drawn), for which the z-score was -0.269.
The result for `CCn1c(Cc2ccccc2)nnc1SCC(=O)c1cccc([N+](=O)[O-])c1` reads -2.15; that for `Cc1ccc(C(=O)OCC(=O)NCc2ccco2)cc1`, -0.195.
The result for `COCC(=O)Nc1cc(C(=O)OC)cc(C(=O)OC)c1` reads -1.3; that for `O=C(CSc1nc(-c2ccco2)cc(C(F)(F)F)n1)N1CCN(c2ccc(Cl)cc2)CC1`, -0.455; that for `Cn1c(=O)n(C)c2cc(S(=O)(=O)O)ccc21`, -0.339.
Compound `CN1CCN(CC(=O)Nc2nc(-c3ccccc3)cs2)CC1` gave a z-score of 1.04.
Under `COC(=O)CCn1nnc(-c2cccs2)n1` stands 0.584; under `CCOc1ccccc1N(CC(=O)Nc1ccc(S(=O)(=O)N2CCOCC2)cc1)S(=O)(=O)c1ccc(Cl)cc1`, -0.0409; under `COC(=O)Nc1ccc(S(=O)(=O)Nc2ccc(O)cc2)cc1`, 0.579.
Under `CCOC(=O)C1CCCN(S(=O)(=O)c2ccc(Br)s2)C1` (stereo not drawn) stands -0.167; under `CCN(CC)S(=O)(=O)c1cccc(C(=O)Oc2cccnc2)c1`, 0.621.
The result for `CCCCCCOC(=O)c1ccc(NC(=O)c2cc(OC)c(OC)c(OC)c2Br)cc1` reads -0.208; that for `CN1C(=O)CC(N2CCN(CC(N)=O)CC2)C1=O` (stereo not drawn), 0.0718; that for `CC(=O)N1CCN(Cc2nc3cc(NC(=O)c4ccc(Cl)cc4)ccc3n2C)CC1`, -1.71.
Turning to `CCOC(=O)CCc1nc2ccccc2[nH]c1=O`, the z-score was -0.401.
On to `COc1cccc(OCCOc2ccccc2[N+](=O)[O-])c1`, for which the z-score was -0.0515.
The result for `CC(C)CC(c1nnnn1Cc1cccs1)N1CCN(c2nc3ccccc3s2)CC1` (stereo not drawn) reads 0.328.
Under `COc1ccc(NC(=O)COC(=O)CCCc2c[nH]c3ccccc23)cc1` stands -0.238; under `CN(C)c1cccc2c(C=C(C#N)C#N)ccc(N(C)C)c12`, -0.0912.
For `CCc1c(O)nc(SCC(=O)Nc2ccccc2)n(C(C)CC)c1=O` (stereo not drawn), the z-score was -0.191.
As for `O=C(Nc1ccccc1)O/N=C1\CCCCC1c1ccc([N+](=O)[O-])cc1[N+](=O)[O-]` (stereo not drawn), the z-score was -0.435.
Regarding `COC(=O)C(O)(CC(=O)Nc1ccc(OC)cc1)C(F)(F)F` (stereo not drawn), the z-score is -0.0368.
Under `COc1ccc(/C(N)=N/O)cc1O` stands -0.138; under `CCCN1CCC(NC(=O)Nc2ccc(OC)c(OC)c2)CC1`, 0.00828; under `O=C(CNc1ccccc1)N/N=C/c1ccc2c(c1)OCO2`, -0.247.
For `O=C(NNC(=O)c1cc2c(s1)CCCC2)c1ccccc1`, the z-score is 0.395.
As for `COc1ccc2c(c1)C(C)=CC(C)(C)N2C(=O)Nc1ccccc1`, the z-score was -0.44.
Take `Cc1[nH]n(-c2ncc(-c3ccccc3)s2)c(=O)c1C(c1ccc(Br)cc1)C(C#N)C#N` (stereo not drawn): the z-score was 0.397.
Regarding `COc1ccc(CNC(=O)C2CCCN(S(=O)(=O)c3c(C)n[nH]c3C)C2)cc1` (stereo not drawn), the z-score was -0.287.
Turning to `CCCOc1ccccc1Nc1nnc(C)c(=O)[nH]1`, the z-score worked out at 0.409.
Under `COc1ccc(-c2cc(C(=O)Nc3cc(OC)c(OC)c(OC)c3)no2)cc1OC` stands 0.558.
The result for `CO/N=C(/CS(=O)(=O)c1ccc(C)cc1)c1ccc(OC)cc1` reads -0.113; that for `Cc1ccc(S(=O)(=O)N2CCCC2C(=O)N(C)Cc2cccs2)cc1` (stereo not drawn), 0.127.
Under `CC1=C(C#N)c2nc(N)c(C#N)c(C)c2/C1=C\c1ccc(C)cc1` stands -0.932; under `CC(NC(=O)CSCc1ccccc1Br)c1ccccc1` (stereo not drawn), -0.331; under `CC(=O)Nc1ccc(Oc2nc(C)cc(C)n2)cc1`, 0.187.
In the case of `Cc1ccnc(NC(=O)CCC(=O)N(CC(=O)NCC2CCCO2)Cc2ccc(F)cc2)c1` (stereo not drawn), the z-score is -0.21.
The result for `Cc1sc(=NC(=O)c2ccco2)n(C)c1-c1ccccc1` reads -1.03; that for `CN(CCCNC(=O)Cn1cc2c(n1)CCCC2)C1CCCCC1`, -0.148.
Under `C[C@H](NS(=O)(=O)c1ccc(Cl)c(Cl)c1)C(=O)OCc1cc(=O)n2cc(Br)ccc2n1` stands 0.313.
In the case of `O=C(CSc1ccc2nnc(-c3ccccn3)n2n1)NCc1ccco1`, the z-score is -0.383.
The result for `Cc1nnsc1C(=O)Nc1ccc(Cl)cc1Cl` reads -0.0382; that for `COc1ccc(/C=N/OCC(=O)N(Cc2ccc(OC)cc2)c2ccccc2C(=O)O)cc1`, -0.615.
For the compound `COC(=O)CCC(=O)Nc1cc(S(=O)(=O)Nc2ccc(Cl)cc2)ccc1N1CCOCC1`, the z-score came to 0.147.
The result for `CCOc1ccc2nc(NS(C)(=O)=O)sc2c1` reads 0.859; that for `Cc1ccc(F)cc1NCC(=O)Nc1ccc(Cl)cc1F`, -0.36.
In the case of `CCC1(C)Nc2ccccc2C(=O)N1O` (stereo not drawn), the z-score was -0.11.
For `O=S1(=O)N=CN(Cc2cccc(F)c2)c2ccccc21`, the z-score is -0.858.
In the case of `COc1ccc([N+](=O)[O-])cc1NC(=S)Nc1ccccc1`, the z-score came out at 0.443.
The result for `Cc1c(C(=O)NN2CCN(C)CC2)cccc1[N+](=O)[O-]` reads 0.315; that for `O=c1cc(N2CCCCC2)c(-c2ccccc2)nn1Cc1c(Cl)cccc1Cl`, -0.0943.
Take `COc1ccc(/C=C/C(=O)Nc2cc(C)nn2-c2nc3ccccc3[nH]2)cc1`: the z-score was -0.199.
`Cc1cnc(C(=O)Nc2nnc(C(C)C)s2)cn1` returned a z-score of 0.817.
Under `Cc1c(C(=O)N/N=C/c2cccs2)nc2ccccn12` stands -0.0796.
The result for `COc1ccc(C2C3=C(CC(C)(C)CC3=O)Oc3ncn(CCO)c(=N)c32)cc1OC` (stereo not drawn) reads 0.234; that for `COC(=O)c1ccc(C)c(NC(=O)CCc2ccc(OC)c(OC)c2)c1`, -0.242.
In the case of `Cc1ccc(NC(=O)C2CC(=O)OC23CCOC(C)(C)C3)cc1` (stereo not drawn), the z-score was -0.427.
In the case of `Cc1cccc(C(=O)N2CCN(C(=O)c3cccc(C)c3)C(C)C2)c1` (stereo not drawn), the z-score is -0.688.
The result for `CC1CCCCN1c1ncnc2ccccc12` (stereo not drawn) reads -0.0781; that for `Cc1ccc(NS(=O)(=O)c2ccc(NC(=O)c3cccs3)cc2)cc1`, 0.0709; that for `Cn1c(=Nc2ccccc2)sc2ccccc21`, -0.206.
The result for `Cn1c(SCC(=O)N2CCOCC2)nnc1-c1cccc(NC(=O)c2ccccc2F)c1` reads -0.0191; that for `CC(=O)Nc1ccc2c(CSc3nnc(-c4cccnc4)n3-c3ccc(C)cc3C)cc(=O)oc2c1`, -0.955.
Regarding `COc1ccc(CCN(C(=S)Nc2ccccc2)C2CC(=O)N(c3ccccc3)C2=O)cc1` (stereo not drawn), the z-score is -0.371.
Under `FC(F)(F)c1cc(-c2ccccc2)nc(N2CCOCC2)n1` stands -0.152; under `COc1ccc(NC(=O)CSc2nnc(-c3ccncc3)n2CC2CCCO2)c(OC)c1` (stereo not drawn), 0.543.
Take `COc1ccc(C(=O)Nc2c(Cl)cc(Cl)cc2C(=O)NCCN2CCOCC2)cc1`: the z-score was -0.486.
The compound `CCC(=O)Nc1ccc(C(=O)n2ccc(C)n2)cc1` returned a z-score of 0.233.
For `COCCCN=C1NN=C(c2cc(C)n(Cc3ccco3)c2C)CS1`, the z-score came out at 0.0171.
Consider `N#CC(c1cccc(Cl)c1)c1ccc2c(C(F)(F)F)cc(C(F)(F)F)nc2n1` (stereo not drawn), for which the z-score was active: 10.5.
The result for `CCCC12CN3CC(CCC)(CN(C1)C3C(O)C(O)C(O)CO)C2=O` (stereo not drawn) reads 0.565.
Under `CC(C)(C)NC(=O)C(c1ccncc1)N(Cc1cccs1)C(=O)Cn1nnc(-c2ccc(F)cc2)n1` (stereo not drawn) stands -0.465; under `N#Cc1cccc(NC(=O)CCC2CCCC2)c1`, 0.0235.
As for `CCc1ccc(NC(=O)c2ccc3nc(N)sc3c2)cc1`, the z-score was -0.53.
Under `Cc1ccc(-n2ncc3c(=O)n(Cc4cccnc4)cnc32)cc1` stands -0.666.
The result for `O=C(CSc1nc2ccccc2c(=O)[nH]1)N1CCCCC1` reads -0.158; that for `Cc1ccc(S(=O)(=O)N(C)CC(=O)Nc2nc3ccccc3s2)cc1`, 0.716.
Under `N#CC1=C(N)Oc2cc(N)ccc2C1C1CCCCC1` (stereo not drawn) stands 0.0181; under `N=C1C(c2nc3ccccc3s2)=C(O)CN1Cc1ccccc1`, 0.0639.
Consider `COc1ccc(C(=O)CSc2nnc(-c3cc4ccccc4cc3O)n2Cc2ccco2)cc1`, for which the z-score was 0.923.
Regarding `CCN(c1ccccc1)S(=O)(=O)c1ccc(Cl)c(NC(=O)CSc2ncn[nH]2)c1`, the z-score was -0.854.
Under `O=c1[nH]n2c(=O)c3c([nH]c2c1N=Nc1cccc(Cl)c1)CCCC3` stands -2.43.
Under `Cc1ccc(-n2nc(C)c(/C=N/NC(=O)c3cccnc3)c2Cl)cc1` stands -0.239; under `NC(=O)COc1c(-c2ccccc2)oc2ccccc2c1=O`, 0.0735; under `O=C(CCN1C(=O)C2C3C=CC(C3)C2C1=O)N1CCN(c2ccccc2Cl)CC1` (stereo not drawn), -0.0556.
On to `Oc1ccc(-c2nc3ccc4ccccc4c3c3c2CCC3)cc1O`, for which the z-score was -0.202.
As for `COc1ccc(OCC(=O)OCCNC(=O)c2cccnc2)cc1`, the z-score was -0.0576.
Regarding `O=C1C(=Cc2cccn2-c2ccc(O)cc2)C(=O)c2ccccc21`, the z-score is -0.204.
The result for `COc1ccc(NC(=O)CSc2nnc(-c3ccccn3)n2N)cc1Cl` reads -0.222.
The result for `FC(F)(F)C(F)(F)C(F)(F)c1nnc2ccc(N3CCOCC3)nn12` reads -1.11.
